Measured values published in publication PMC6250432, “Catalytic competence, structure and stability of the cancer-associated R139W variant of the human NAD(P)H: quinone oxidoreductase 1 (NQO1)” (The FEBS journal, 2017).

Molecular target: the molecule itself
Test: SAXS; solutions of FAD-free (apo) and FAD-bound (holo) wild-type NQO1, 300 uM solute, in-house instrument; masses evaluated from the Porod volume; step: dimer of two protomers

B1: human NAD(P)H:quinone oxidoreductase 1 (NQO1), wild type (enzyme)
chain: not shown
notes: NAD(P)H:quinone oxidoreductase 1 (NQO1), human, EC 1.6.99.2; Homodimeric flavoprotein; also called NQO1 WT; wild-type NQO1
  stoichiometry N: 2
